According to the supplement of paper PMC12067230:
Single values of this set are uncertain.
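Note: [psi-pin-] Saccharomyces cerevisiae expressing SupN fusions, induced by 100 µM Cu2SO4, selected 7 d at 30 °C without adenine and uracil, scored by deep sequencing of output versus input.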

Assay: amyloid nucleation score relative to library mode (yeast Sup35 reporter selection) (log enrichment difference); higher = more amyloid nucleation; sequences are the first 22 residues of the Bri2 peptide extended by up to 12 random residues
Conditions: random library (experiment): 1;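 active = nucleation score significantly above 0 at FDR 0.05; inactive = not significantly above 0 or absent from output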
EASNCFAIRHFENKFAVETLICYIALVMR showed an amyloid nucleation score of 0.833. With EASNCFAIRHFENKFAVETLICDCVDSCYGRICE the amyloid nucleation score was “inactive”. With EASNCFAIRHFENKFAVETLICTFYL the amyloid nucleation score was 8.54. Work on EASNCFAIRHFENKFAVETLICCHVGIVRRLYTC yielded an amyloid nucleation score of 0.804. With EASNCFAIRHFENKFAVETLICTAA the amyloid nucleation score was 0.275. In the case of EASNCFAIRHFENKFAVETLICYYTSWFVLCHSR, the amyloid nucleation score is reported as “inactive”. In the case of EASNCFAIRHFENKFAVETLICDWGHILLQYGPW, the amyloid nucleation score is reported as “inactive”. With EASNCFAIRHFENKFAVETLICPMV the amyloid nucleation score was “inactive”. For EASNCFAIRHFENKFAVETLICASSRFV, the amyloid nucleation score was -0.265. For EASNCFAIRHFENKFAVETLICRFTTLVSGFALW, the amyloid nucleation score was “inactive”. With EASNCFAIRHFENKFAVETLICVGLAGWVTWARC the amyloid nucleation score was “inactive”. EASNCFAIRHFENKFAVETLICKRSFDHRHLIWH showed an amyloid nucleation score of -0.102. Work on EASNCFAIRHFENKFAVETLICDFTLSTYFRGET yielded an amyloid nucleation score of 6.27. For EASNCFAIRHFENKFAVETLICPSEIKEVQPGC, the amyloid nucleation score was “inactive”. For EASNCFAIRHFENKFAVETLICRIQRSAMHCECR, the amyloid nucleation score was “inactive”. EASNCFAIRHFENKFAVETLICVVTSSTMTRGLG showed an amyloid nucleation score of 3.14. EASNCFAIRHFENKFAVETLICRPGLTTVRRRAS showed an amyloid nucleation score of 0.502. EASNCFAIRHFENKFAVETLICHRVGMHREVWHK showed an amyloid nucleation score of 0.713. For EASNCFAIRHFENKFAVETLICPLVLNMCSSVNS, the amyloid nucleation score was “inactive”. For EASNCFAIRHFENKFAVETLICLLHRMSYLVTM, the amyloid nucleation score was “inactive”. With EASNCFAIRHFENKFAVETLICGKECWWTWCEGR the amyloid nucleation score was “inactive”. In the case of EASNCFAIRHFENKFAVETLICHRSTNLRTDVCA, the amyloid nucleation score is reported as “inactive”. EASNCFAIRHFENKFAVETLICNLCCS gave an amyloid nucleation score of 8.01. With EASNCFAIRHFENKFAVETLICCVVKAVRKGE the amyloid nucleation score was -0.227. With EASNCFAIRHFENKFAVETLICESRSNGLLHC the amyloid nucleation score was “inactive”. With EASNCFAIRHFENKFAVETLICLTCSWVMGAGRC the amyloid nucleation score was 7.26. EASNCFAIRHFENKFAVETLICCSADYWSDALLV gave an amyloid nucleation score of 5.81. In the case of EASNCFAIRHFENKFAVETLICLPKLSVICLCVS, the amyloid nucleation score is reported as “inactive”. In the case of EASNCFAIRHFENKFAVETLICLYQARTARVVFH, the amyloid nucleation score is reported as “inactive”. EASNCFAIRHFENKFAVETLICYLSSE gave an amyloid nucleation score of 7.19. For EASNCFAIRHFENKFAVETLICRSQKAHK, the amyloid nucleation score was “inactive”. In the case of EASNCFAIRHFENKFAVETLICILPNCASGVRWT, the amyloid nucleation score is reported as 7.31. In the case of EASNCFAIRHFENKFAVETLICLYGLSSRVVYWS, the amyloid nucleation score is reported as “inactive”. For EASNCFAIRHFENKFAVETLICLTALTLTMGDSM, the amyloid nucleation score was “inactive”. In the case of EASNCFAIRHFENKFAVETLICLDLLSKQVAIRG, the amyloid nucleation score is reported as “inactive”. EASNCFAIRHFENKFAVETLICPRHRCVNSRQCS showed an amyloid nucleation score of -0.129. EASNCFAIRHFENKFAVETLICLGHSANRDVWLL showed an amyloid nucleation score of 2.28. Sequence EASNCFAIRHFENKFAVETLICCALYSVN has an amyloid nucleation score of 8.05. EASNCFAIRHFENKFAVETLICTVKLCSLAWESR gave an amyloid nucleation score of 3.83.

Same assay, conditions: random library (experiment): 2
For EASNCFAIRHFENKFAVETLICGLLFSNCGDMLV, the amyloid nucleation score was 3.26. Work on EASNCFAIRHFENKFAVETLICGYGSSFANCLCF yielded an amyloid nucleation score of 5.53. With EASNCFAIRHFENKFAVETLICLHDNRWSSIYAW the amyloid nucleation score was “inactive”. With EASNCFAIRHFENKFAVETLICVERWSYESDDFT the amyloid nucleation score was “inactive”. In the case of EASNCFAIRHFENKFAVETLICVRSWWTLLMISF, the amyloid nucleation score is reported as -0.215. For EASNCFAIRHFENKFAVETLICYKSMGFLNNRTL, the amyloid nucleation score was “inactive”. Work on EASNCFAIRHFENKFAVETLICGCCGMLRLLRVG yielded an amyloid nucleation score of 5.66. With EASNCFAIRHFENKFAVETLICLAWLWSCGSHKH the amyloid nucleation score was “inactive”. EASNCFAIRHFENKFAVETLICGFSQWFESGHYL showed an amyloid nucleation score of 5.59. EASNCFAIRHFENKFAVETLICPNGCNDSILAEE gave an amyloid nucleation score of 3.35. With EASNCFAIRHFENKFAVETLICESVKRRWLICEG the amyloid nucleation score was “inactive”. In the case of EASNCFAIRHFENKFAVETLICDY, the amyloid nucleation score is reported as “inactive”. For EASNCFAIRHFENKFAVETLICNHTLSYVLVIVG, the amyloid nucleation score was “inactive”. In the case of EASNCFAIRHFENKFAVETLICFYLML, the amyloid nucleation score is reported as “inactive”. Work on EASNCFAIRHFENKFAVETLICVLLFFSVYCRDR yielded an amyloid nucleation score of 1.6. With EASNCFAIRHFENKFAVETLICVLKTDIIRIMCR the amyloid nucleation score was “inactive”. For EASNCFAIRHFENKFAVETLICNWNVNLCSLIVM, the amyloid nucleation score was 8.22. In the case of EASNCFAIRHFENKFAVETLICYCTGNFSLGVWR, the amyloid nucleation score is reported as 5.37. For EASNCFAIRHFENKFAVETLICHAFEIQSECGLR, the amyloid nucleation score was “inactive”. For EASNCFAIRHFENKFAVETLICRSPAWGGYILDS, the amyloid nucleation score was “inactive”. Work on EASNCFAIRHFENKFAVETLICFSVCKLVAFNHF yielded an amyloid nucleation score of 3.2. In the case of EASNCFAIRHFENKFAVETLICRTCMM, the amyloid nucleation score is reported as “inactive”. With EASNCFAIRHFENKFAVETLICLC the amyloid nucleation score was 6.89. EASNCFAIRHFENKFAVETLICVAEGHQYFCMHA showed an amyloid nucleation score of 7.09. In the case of EASNCFAIRHFENKFAVETLICGVTVFRDPRFCL, the amyloid nucleation score is reported as 3. With EASNCFAIRHFENKFAVETLICKIVFLSEMCQVL the amyloid nucleation score was “inactive”. With EASNCFAIRHFENKFAVETLICEKMCYGPVVLCG the amyloid nucleation score was 0.707. In the case of EASNCFAIRHFENKFAVETLICKLMMDQFSFLWR, the amyloid nucleation score is reported as “inactive”. With EASNCFAIRHFENKFAVETLICCLFTFKWSLILN the amyloid nucleation score was “inactive”.

Same assay, conditions: random library (experiment): 3
In the case of EASNCFAIRHFENKFAVETLICPYKVQLRTLIWS, the amyloid nucleation score is reported as “inactive”. In the case of EASNCFAIRHFENKFAVETLICCRMNVVGQWFEI, the amyloid nucleation score is reported as 5.43. EASNCFAIRHFENKFAVETLICRVASWIVGTRGL gave an amyloid nucleation score of 0.632. In the case of EASNCFAIRHFENKFAVETLICFCRVWRTPKLMM, the amyloid nucleation score is reported as “inactive”. Sequence EASNCFAIRHFENKFAVETLICDGYRDVISGLCL has an amyloid nucleation score of 1.57. In the case of EASNCFAIRHFENKFAVETLICAIAGCFGLGRWG, the amyloid nucleation score is reported as 7.71. With EASNCFAIRHFENKFAVETLICTSKRKTL the amyloid nucleation score was “inactive”. Sequence EASNCFAIRHFENKFAVETLICYIVR has an amyloid nucleation score of 0.0274. EASNCFAIRHFENKFAVETLICGFCASSYRLIRW gave an amyloid nucleation score of 5.04. With EASNCFAIRHFENKFAVETLICCSVSSHFNARAM the amyloid nucleation score was 6.8. For EASNCFAIRHFENKFAVETLICEAQLVEATRSVE, the amyloid nucleation score was “inactive”. Work on EASNCFAIRHFENKFAVETLICMCSD yielded an amyloid nucleation score of 7.32. For EASNCFAIRHFENKFAVETLICEDGPWIRPPR, the amyloid nucleation score was “inactive”. Work on EASNCFAIRHFENKFAVETLICVSGPVVLGVSLS yielded an amyloid nucleation score of 6.07. For EASNCFAIRHFENKFAVETLICCGSWYSCGRRYP, the amyloid nucleation score was 7.67. For EASNCFAIRHFENKFAVETLICEQNCRANRVSPG, the amyloid nucleation score was “inactive”. In the case of EASNCFAIRHFENKFAVETLICVFYMQLRSANVL, the amyloid nucleation score is reported as “inactive”. With EASNCFAIRHFENKFAVETLICGPGSDWRASQAQ the amyloid nucleation score was “inactive”. With EASNCFAIRHFENKFAVETLICMLISCVWLRVLV the amyloid nucleation score was “inactive”.
